In all, about 110,000 compounds were measured (“z-score”: median about -0.1, highest 2% from about 2 on). Some of the results follow.
Molecular target: Metabotropic glutamate receptor 8 (Rattus norvegicus) (UniProt P70579)
Assay: mGluR8 Gi/Go-coupled signaling modulation – cell-based, rat, thallium flux, HTS, primary screen (AID 488969)
Details: HEK293 rat mGluR8, GIRK (G protein-gated inwardly rectifying potassium channel) thallium flux, FluoZin2; at 10 µM; stronger effect = higher value; submaximal glutamate (EC20) added with thallium

Chain of UniProt P70579 (P70579 whole entry, looked up): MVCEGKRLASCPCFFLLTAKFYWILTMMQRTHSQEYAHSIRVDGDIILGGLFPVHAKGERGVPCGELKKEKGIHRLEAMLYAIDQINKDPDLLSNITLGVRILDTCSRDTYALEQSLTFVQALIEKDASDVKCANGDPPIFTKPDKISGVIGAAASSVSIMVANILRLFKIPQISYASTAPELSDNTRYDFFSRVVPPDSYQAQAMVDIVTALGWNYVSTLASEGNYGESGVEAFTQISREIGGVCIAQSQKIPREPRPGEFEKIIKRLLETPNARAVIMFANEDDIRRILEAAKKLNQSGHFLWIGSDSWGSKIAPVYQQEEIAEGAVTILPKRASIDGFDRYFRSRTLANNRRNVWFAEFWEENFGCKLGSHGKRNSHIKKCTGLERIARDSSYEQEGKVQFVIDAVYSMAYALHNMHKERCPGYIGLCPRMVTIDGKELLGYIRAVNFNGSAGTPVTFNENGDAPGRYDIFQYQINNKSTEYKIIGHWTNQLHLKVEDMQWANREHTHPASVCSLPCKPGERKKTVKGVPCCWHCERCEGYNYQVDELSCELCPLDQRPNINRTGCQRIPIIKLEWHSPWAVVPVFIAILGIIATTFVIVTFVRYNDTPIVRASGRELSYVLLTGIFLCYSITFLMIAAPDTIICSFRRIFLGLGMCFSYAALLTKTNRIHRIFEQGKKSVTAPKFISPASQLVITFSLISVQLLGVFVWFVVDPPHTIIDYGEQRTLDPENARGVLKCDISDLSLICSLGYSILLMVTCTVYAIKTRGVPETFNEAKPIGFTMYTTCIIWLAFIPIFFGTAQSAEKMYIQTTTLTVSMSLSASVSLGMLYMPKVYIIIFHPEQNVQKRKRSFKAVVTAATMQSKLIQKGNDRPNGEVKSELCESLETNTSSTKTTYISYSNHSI

SMILES	z-score
CC1=C(C(=O)Nc2cccc(F)c2)C(c2ccsc2)C2=C(CC(C)(C)CC2=O)N1 (centres undefined)	0.0448
O=C(Cc1ccccc1Cl)NCCCn1ccnc1	0.286
Cc1ccccc1-n1c(SCC(N)=O)nc2sc(-c3ccccc3)cc2c1=O	0.617
CCOc1ccc(N(C(=O)c2cnsn2)C(C(=O)NC2CCCCC2)c2ccncc2)cc1 (centres undefined)	-0.064
CC1C(=O)CCC1(C(=O)O)c1ccccc1 (centres undefined)	0.225
N#Cc1c(NC(=O)Cn2c(=O)oc3ccccc32)oc(-c2ccccc2)c1-c1ccccc1	-0.679
COc1cc(CN2C(=S)NC(C)(C)CC2(C)O)cc(OC)c1 (centres undefined)	-0.155
O=C(CN1CCN(S(=O)(=O)c2ccccc2)CC1)Nc1cccc(C(F)(F)F)c1	-0.142
O=c1oc2ccccc2cc1-c1cn2cccnc2n1	0.341
COCCNC(=S)N1CCOCC1	-0.306
Cc1nc(N2CCOCC2)nc(N2CCN(c3ccccc3)CC2)c1[N+](=O)[O-]	-0.205
O=C1C2CC=CCC2C(=O)N1c1ccc(NCCc2ccc(Cl)cc2)c([N+](=O)[O-])c1 (centres undefined)	-0.122
CC(=C/c1ccccc1)/C=N/NC(=O)c1cnccn1	-0.176
Cc1c(OCC(F)(F)F)ccnc1CSc1nc2ccccc2[nH]1	-0.223
CCOC(=O)c1c(C)n(OCc2ccccc2)c2ccc3nonc3c12	-0.0507
CCOC(=O)c1c(C)nc2sc3c(=O)n(-c4ccc(C(C)=O)cc4)nnc3c2c1-c1ccc(OC)cc1	-0.306
Oc1ccc2ccccc2c1/C=N/Nc1nnc(-c2ncc[nH]2)c2ccccc12	-0.336
CCCCCOC(=O)Cc1c(C)nc(-c2ccccc2)[nH]c1=O	-1.01
CCc1ccccc1NC(=O)c1ccc(NCCc2ccccc2)c([N+](=O)[O-])c1	-1
Cc1cc(C)nc(SCc2nnc(SCC(=O)Nc3c(C)cccc3C)o2)n1	-0.101
CN1CCN(NC(=S)NC2CCCCC2)CC1	-0.11
CCOC(=O)c1ccccc1NS(=O)(=O)c1ccc(C)cc1	0.251
CC(OC(=O)CCc1nc2ccccc2[nH]c1=O)C(=O)c1ccccc1 (centres undefined)	-0.532
COC(=O)c1ccc(C(=O)OC)c(NC(=O)CN(C)Cc2cccc(Cl)c2Cl)c1	-0.099
CCn1c(SCC(=O)N2CCN(c3ccc(Cl)cc3)CC2)nc2ccccc2c1=O	-0.224
COc1ccc(C(=O)NCC(c2ccc(F)cc2)N2CCOCC2)cc1S(=O)(=O)N1CCCC1 (centres undefined)	-0.0294
CCn1cc([N+](=O)[O-])c(C(=O)Nc2nc(-c3ccc(C)cc3)c(C)s2)n1	-0.546
NC(=O)CSc1nnc(-c2ccncc2)n1-c1ccc(Cl)cc1	-0.00762
O=C(NN1C(=O)C2C3C=CC(C4CC34)C2C1=O)c1ccc(Cl)c(Cl)c1 (centres undefined)	-0.0159
